# Experimental data reported in the supplement of paper PMC7826260.
# Some of the results follow. Cleavage of a single-stranded DNA pool by Rep nickase domains was read by sequencing (1 h at 37 °C, 3 µM enzyme); the outer parts of the 90-letter strands are left off. Values are log2 of uncut reads against the no-enzyme pool; uncut sequences lie near 0, cut ones below; no hit call is given. Counts are relative to all reads; where an enzyme cuts many sequences, the uncut ones exceed 0.
# Columns and labels:
# Assay in all cases: uncleaved DNA left, log2 of reads against the no-enzyme library (log2 ratio); higher = less cleavage (more negative = more Rep cleavage of the k-mer); sequences stand for … in CTCGTCCG…ACCGGAGA
# [1] = tested on: T1, Rep nickase domain of Muscovy duck circovirus
# T1 sequence (residues 1-111, tag not shown): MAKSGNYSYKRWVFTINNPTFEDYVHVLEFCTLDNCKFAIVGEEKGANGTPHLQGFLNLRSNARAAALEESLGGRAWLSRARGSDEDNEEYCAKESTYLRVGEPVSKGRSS
# Protocol: (§1)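 A pool of 90-nt single-stranded DNAs with seven random bases just before the constant AC of the nick site (name = the seven bases) was cut by 3 µM recombinant His6-SUMO-tagged Rep nickase domain (300 nM DNA, 50 mM HEPES pH 8.0, 50 mM NaCl, 1 mM MnCl2, 1 h, 37 °C, three replicates). Uncut DNA was amplified and sequenced.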
# [2] = tested on: T2, Rep nickase domain of banana bunchy top virus
# T2 sequence (residues 1-94, tag not shown): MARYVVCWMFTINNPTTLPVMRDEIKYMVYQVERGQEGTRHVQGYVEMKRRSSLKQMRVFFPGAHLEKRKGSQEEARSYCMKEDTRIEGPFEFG
# Protocol: as §1
# [3] = tested on: T3, Rep nickase domain of cabbage leaf curl virus
# T3 sequence (residues 1-116, tag not shown): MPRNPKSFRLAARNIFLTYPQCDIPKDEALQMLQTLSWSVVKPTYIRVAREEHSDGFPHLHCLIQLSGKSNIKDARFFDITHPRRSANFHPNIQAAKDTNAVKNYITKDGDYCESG
# Protocol: as §1
# [4] = tested on: T4, Rep nickase domain of chickpea chlorotic dwarf virus
# T4 sequence (residues 1-124, tag not shown): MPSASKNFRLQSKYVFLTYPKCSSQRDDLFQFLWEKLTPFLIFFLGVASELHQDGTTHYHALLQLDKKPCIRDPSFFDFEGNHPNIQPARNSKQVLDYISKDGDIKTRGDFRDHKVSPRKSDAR
# Protocol: as §1
# [5] = tested on: T5, Rep nickase domain of faba bean necrotic yellows virus
# T5 sequence (residues 1-98, tag not shown): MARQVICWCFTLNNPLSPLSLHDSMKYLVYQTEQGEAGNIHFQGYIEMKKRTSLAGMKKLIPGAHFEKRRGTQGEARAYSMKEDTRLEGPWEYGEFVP
# Protocol: as §1
# [6] = tested on: T6, Rep nickase domain of maize striate mosaic virus
# T6 sequence (residues 1-117, tag not shown): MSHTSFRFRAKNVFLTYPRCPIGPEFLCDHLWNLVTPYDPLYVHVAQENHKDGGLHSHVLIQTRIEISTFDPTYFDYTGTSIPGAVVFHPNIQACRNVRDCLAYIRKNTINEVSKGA
# Protocol: as §1
# [7] = tested on: T7, Rep nickase domain of porcine circovirus 2
# T7 sequence (residues 2-116, tag not shown): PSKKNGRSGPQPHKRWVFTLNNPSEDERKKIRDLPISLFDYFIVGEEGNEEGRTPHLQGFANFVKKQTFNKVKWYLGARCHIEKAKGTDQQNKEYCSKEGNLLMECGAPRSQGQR
# Protocol: as §1
# [8] = tested on: T8, Rep nickase domain of tomato golden mosaic virus
# T8 sequence (residues 1-124, tag not shown): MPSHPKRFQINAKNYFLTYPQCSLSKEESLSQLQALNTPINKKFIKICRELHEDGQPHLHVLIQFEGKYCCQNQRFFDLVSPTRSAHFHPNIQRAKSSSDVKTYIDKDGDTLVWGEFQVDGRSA
# Protocol: as §1
# [9] = tested on: T9, Rep nickase domain of tomato yellow leaf curl virus
# T9 sequence (residues 1-136, tag not shown): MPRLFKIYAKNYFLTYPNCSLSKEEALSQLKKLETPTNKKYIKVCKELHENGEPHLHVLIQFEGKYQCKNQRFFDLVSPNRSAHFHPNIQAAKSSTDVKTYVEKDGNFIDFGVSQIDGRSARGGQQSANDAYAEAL
# Protocol: as §1
# [10] = tested on: T10, Rep nickase domain of wheat dwarf virus
# T10 sequence (residues 1-137, tag not shown): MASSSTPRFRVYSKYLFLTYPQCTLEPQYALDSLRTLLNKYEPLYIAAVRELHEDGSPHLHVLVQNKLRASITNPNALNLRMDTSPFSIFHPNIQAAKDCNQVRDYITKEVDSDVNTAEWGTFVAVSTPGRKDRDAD
# Protocol: as §1
Sequence,uncleaved DNA left (log2) [1],uncleaved DNA left (log2) [2],uncleaved DNA left (log2) [3],uncleaved DNA left (log2) [4],uncleaved DNA left (log2) [5],uncleaved DNA left (log2) [6],uncleaved DNA left (log2) [7],uncleaved DNA left (log2) [8],uncleaved DNA left (log2) [9],uncleaved DNA left (log2) [10]
ATCACTG,-0.0438,0.0311,-0.138,0.362,-0.0361,0.527,0.0124,0.000131,-0.0332,0.0485
TGGGGTG,0.139,-0.00794,-0.158,-0.0977,0.0753,-0.215,0.218,0.000217,-0.0596,0.0726
TCGATCC,0.154,-0.0214,0.212,0.00524,0.146,-0.0251,0.0471,-0.085,-0.0523,-0.00709
CGACGGT,0.1,-0.0918,0.0792,0.544,-0.1,1.57,-0.0235,-0.0341,-0.0764,0.04
CCCTTCG,0.019,-0.221,-0.934,0.23,-0.0618,-0.742,0.0956,-0.166,0.0374,-0.0223
GAGTTGG,-0.0106,-0.0634,-0.223,-0.24,-0.0433,-0.632,-0.238,0.0595,-0.0554,-0.0499
AAGGTGT,0.0943,0.101,0.172,1.33,0.156,1.6,0.149,0.123,-0.144,-0.0627
TAATCTA,-0.937,0.0397,-2.87,-3.05,-0.00992,-2.22,-1.74,-3.04,-0.224,-2.93
TGTAGGC,0.132,0.0489,0.34,0.615,0.02,0.183,0.176,0.07,0.0857,0.11
TTGGACC,-0.0684,-0.0426,0.34,0.859,0.0281,0.556,0.0453,-0.103,-0.0327,0.0255
CTTAGAT,0.0817,-0.0171,0.204,0.483,-0.003,0.591,0.065,0.0537,-0.0435,0.0859
GAGAGTG,-0.00371,-0.139,-0.00247,0.466,0.0779,0.983,0.0465,0.0761,-0.00827,-0.00501
TCTGGCG,0.203,0.112,-0.564,1.01,0.293,-0.0464,0.267,0.0989,0.152,-0.0104
TTGCAAA,0.124,0.212,-0.215,0.0604,0.0756,-0.67,0.274,0.171,0.251,0.282
TCTCGCT,0.0353,-0.218,-0.356,-1.32,-0.00364,-1.18,-0.142,-0.0452,-0.0612,-0.195
TACTCAT,-2.44,-1.02,-0.771,-2.79,-0.044,-0.341,-3.85,-0.0898,-0.0706,-0.0875
ATGCTAC,-0.943,-0.0918,-0.681,-2.25,-0.0885,-0.973,-0.566,-0.188,-0.0497,-0.16
TCCACTT,-0.1,-0.132,-0.0805,-2.15,-0.0667,-0.234,-0.245,-0.145,-0.0221,-0.201
CTCCAGT,-0.0224,0.0251,-0.182,-0.876,-0.141,-0.861,-0.231,-0.0951,0.105,-0.0176
CACTAGA,0.118,0.106,-0.124,-0.575,0.17,-0.75,-0.381,0.161,0.11,0.127

Sequence,uncleaved DNA left (log2) [1],uncleaved DNA left (log2) [2],uncleaved DNA left (log2) [3],uncleaved DNA left (log2) [4],uncleaved DNA left (log2) [5],uncleaved DNA left (log2) [6],uncleaved DNA left (log2) [7],uncleaved DNA left (log2) [8],uncleaved DNA left (log2) [9],uncleaved DNA left (log2) [10]
TAAAACC,-0.149,0.0164,-1.95,-2.77,-0.00525,-0.888,-0.479,-0.0758,0.0304,-0.368
GGGCCCA,-0.0606,0.0283,0.703,1.68,-0.114,2.08,0.117,-0.128,0.0187,-0.00785
GCTACGT,-0.0199,0.00923,0.191,0.302,-0.0136,0.179,-0.0187,0.00109,0.036,0.0179
AGAGCCA,0.146,0.133,0.47,0.64,0.142,1.6,0.0604,0.102,0.104,-0.00526
GTCCACT,0.032,0.0847,0.288,0.647,-0.0347,1.55,0.108,0.146,0.0945,0.194
GGATAGC,0.125,0.0713,0.702,1.61,0.0528,1.82,0.257,0.046,0.0232,0.147
TAGGTGG,-0.0182,0.0167,0.0141,0.0946,-0.015,-0.363,0.14,0.00978,-0.0269,-0.0119
TCTATGC,0.204,0.219,-0.404,-0.49,0.0427,-1,0.363,0.112,0.145,0.114
ACTTTCA,-0.174,-0.0493,-0.385,-1.56,0.00695,-0.745,-0.143,-0.066,-0.0623,0.062
GACTGAA,-0.0388,0.0324,0.117,0.695,0.0422,1.25,-0.805,0.0335,0.0258,0.112
CGTGCTC,-0.0805,-0.141,-0.0254,-0.156,-0.0722,-0.507,-0.0183,-0.0992,-0.0436,-0.0406
GTGTTCT,-0.0295,-0.0139,0.296,0.763,-0.061,1.81,-0.434,0.0287,0.0575,0.134
CGGTTCC,-0.0587,-0.0589,0.242,0.535,-0.0148,0.958,-0.0538,-0.0821,0.0601,-0.0725
CACCCCC,-0.281,-0.228,-0.122,-1.13,-0.242,-0.418,-0.688,-0.168,-0.206,-0.122
CCGCTTG,0.127,-0.0155,-0.0784,-0.296,0.175,-0.297,0.423,0.163,0.258,-0.0358
GTAGTAT,-0.000217,0.0306,0.38,0.776,-0.0506,1.87,0.0717,0.185,0.154,0.0909
CGGCGAT,0.0456,0.0535,-0.00137,0.664,-0.169,0.528,0.107,0.136,-0.0436,0.0455
TCCTAGA,-0.138,-0.00281,0.057,-0.0329,-0.0224,-0.754,-0.0434,-0.0493,0.0558,-0.0607
GCCAGCC,0.0519,-0.0133,0.0869,0.315,0.0365,-0.293,0.121,0.0021,-0.0231,0.0324
TGAGTTA,0.154,0.0368,0.217,-0.216,0.0999,0.254,0.0306,0.0778,0.181,0.0905

Sequence,uncleaved DNA left (log2) [1],uncleaved DNA left (log2) [2],uncleaved DNA left (log2) [3],uncleaved DNA left (log2) [4],uncleaved DNA left (log2) [5],uncleaved DNA left (log2) [6],uncleaved DNA left (log2) [7],uncleaved DNA left (log2) [8],uncleaved DNA left (log2) [9],uncleaved DNA left (log2) [10]
GTACGAG,0.0881,0.177,0.725,1.2,0.131,1.12,0.147,0.0853,0.108,0.171
TTTGGAT,-0.0801,-0.0338,0.196,1.36,-0.0618,1.77,0.0534,0.0555,-0.282,-0.0723
CATAACC,-0.251,-0.0804,-0.483,-1.88,-0.0559,-0.93,-0.693,-0.0737,-0.1,-0.0654
TAAGGAT,0.035,0.0694,0.141,1.59,0.0345,1.86,0.0823,0.107,-0.164,-0.0438
AGCCTGC,-0.0718,-0.035,-0.108,0.433,-0.111,0.791,0.0134,-0.178,-0.0954,-0.0137
ATTGTCG,0.0515,0.0234,-0.527,1.03,0.0476,-0.105,0.0454,-0.0135,0.0587,-0.151
CATCGCG,-0.0746,-0.0653,-0.748,0.101,0.0611,-0.579,0.139,-0.146,0.0455,-0.0393
ATTAGTT,-0.45,-0.263,-0.231,-2.14,0.114,-0.591,-2.54,0.0321,-0.0794,-0.15
GCGAGTA,-0.00805,-0.0844,-0.00219,0.375,0.0296,1.08,-0.143,0.117,-0.1,-0.0888
CTAGGAC,-0.0458,-0.0833,0.31,1.15,-0.0717,1.05,0.0786,0.0866,0.00399,0.0418
TTATCTT,-3.11,-0.126,-2.92,-2.59,-0.0943,-0.998,-3.2,-1.81,0.151,-1.96
TTCACAC,0.0284,0.06,0.271,-0.162,0.0146,-0.11,0.0547,-0.00699,0.126,0.0925
TGCCGAG,-0.106,-0.0584,0.575,1.04,0.0672,1.04,0.00313,-0.0352,-0.00963,-0.118
CGATCGG,0.0781,0.0692,0.173,0.788,0.0278,1.33,0.147,0.0671,-0.0292,0.024
CTAGTCA,-0.0154,0.119,0.0794,-1.04,-0.0285,-0.57,0.0312,-0.0596,0.0392,0.155
TCTGAGT,0.0337,0.129,-0.14,-0.313,0.128,-0.745,0.02,0.0355,-0.00765,0.0501
AGTACCC,-0.0263,0.0902,0.509,1.25,0.0371,1.72,-0.102,-0.0552,-0.00227,0.163
TTCTCCG,0.0646,0.00296,-0.719,-0.493,0.117,-1.07,0.143,-0.0125,-0.0909,-0.0305
TGGTCGG,-0.0369,0.00596,0.487,1.33,-0.00992,1.76,0.0857,0.0492,-0.0437,-0.0732
AAGTCTC,-0.0702,-0.167,0.119,-0.795,-0.13,0.00753,-3.44,0.0608,0.0307,-0.0196
